Experimental data: the supplement of paper PMC3334620
In all, about 33,000 sequences were measured (“E-score (-0.5 to 0.5)”: median about -0.036, highest 2% from about 0.37 on). The list shows a part of the results.

target: T1, Yer064c (UniProt P40041); assay: PBM E-score (8-mer binding enrichment) (E-score (-0.5 to 0.5)); higher = stronger / more preferred TF binding; most listed sequences are background and not binding sites; settings: protein concentration: 200 nM; construct: GST-full length
T1 sequence: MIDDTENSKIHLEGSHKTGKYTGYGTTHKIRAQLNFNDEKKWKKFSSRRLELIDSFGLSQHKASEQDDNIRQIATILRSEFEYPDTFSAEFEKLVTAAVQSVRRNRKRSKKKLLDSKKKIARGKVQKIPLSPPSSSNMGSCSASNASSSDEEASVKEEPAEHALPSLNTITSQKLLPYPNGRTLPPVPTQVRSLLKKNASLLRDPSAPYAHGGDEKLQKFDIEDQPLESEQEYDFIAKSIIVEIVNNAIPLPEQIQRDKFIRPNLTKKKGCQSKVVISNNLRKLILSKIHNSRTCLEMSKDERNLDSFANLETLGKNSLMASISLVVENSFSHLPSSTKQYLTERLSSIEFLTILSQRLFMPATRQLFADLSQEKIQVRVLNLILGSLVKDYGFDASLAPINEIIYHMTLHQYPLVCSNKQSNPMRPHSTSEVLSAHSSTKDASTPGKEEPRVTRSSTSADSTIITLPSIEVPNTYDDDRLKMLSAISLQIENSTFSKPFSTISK
How it was run: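 Each ungapped eight-base word and its reverse complement, pooled, received an E-score from the Universal PBM Analysis Suite. Underlying scans, normalised with masliner, recorded fluorescent anti-GST bound to GST-tagged yeast transcription factors. These were applied at about 100-200 nM to universal all-10-mer Agilent arrays double-stranded by primer extension.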

Row | Sequence | PBM E-score
1 | GACAGGCA | -0.0768
2 | ACTGAAGT | 0.138
3 | CACGCGCC | 0.0221
4 | AAAGTATT | 0.00238
5 | CGGTGTAA | -0.0218
6 | GGTATAGA | -0.00589
7 | TTATGGAA | -0.132
8 | GTCAGAGA | 0.0876
9 | ATGCAAAC | -0.21
10 | ATTGACGA | 0.188
11 | ACTTTTAC | 0.0747
12 | CAGCCTGA | 0.223
13 | CCCATAAA | -0.101
14 | ACAGGAGT | 0.203
15 | AGCACGGC | -0.328
16 | ACTTAGAA | 0.175
17 | ATCCAATC | 0.0332
18 | GAGTCCCC | 0.32
19 | TACGCTGA | 0.158
20 | AGAAATAA | 0.101
21 | AATGGTGA | 0.176
22 | GCCATAGA | -0.237
23 | CGGGCTGA | -0.0144
24 | AGACTTAA | 0.195

Row | Sequence | PBM E-score
25 | AATCTTAA | 0.244
26 | CGGCGAAA | -0.0549
27 | AAACAATG | 0.114
28 | AATAAATG | 0.0102
29 | CGCCTGTA | -0.26
30 | ATCCGGAG | 0.064
31 | CATGTCTA | 0.205
32 | AGAAGTCG | 0.207
33 | GTGGGCTA | -0.0478
34 | CCCACCGG | -0.0911
35 | GTGGATGA | 0.271
36 | ACATGCAT | 0.0041
37 | AAGCCGTC | -0.255
38 | GAACCTGC | -0.176
39 | AGATTTAC | -0.00289
40 | ACTGTCAT | 0.162
41 | AAGAACAA | -0.0609
42 | GGAGAGAA | -0.112
43 | AAACAGGC | -0.16
44 | ATGGTACC | -0.315
45 | TGCACACA | 0.00784
46 | CTTCGATC | -0.103
47 | CACAACGG | -0.124
48 | CATGGCCG | -0.31

Row | Sequence | PBM E-score
49 | GATCCGTA | -0.117
50 | CCTTGAGC | -0.118
51 | ATGGAAGG | -0.152
52 | CAAGAATA | 0.00612
53 | ATCTACGC | -0.0396
54 | TAAAAGAA | 0.0221
55 | TGGTAGAA | -0.0551
56 | CCCTACCG | -0.0224
57 | CATACTGC | -0.0757
58 | CAGGCGGG | -0.325
59 | AGTGGCAC | -0.211
60 | CGGTAACC | -0.0716
61 | ACAGTCAT | 0.453
62 | AACAGTCA | 0.384
63 | ACCGCTCC | -0.173
64 | ATGAAGAG | -0.00039
65 | GTTCAAAC | 0.153
66 | CTTCGAAA | 0.0288
67 | AAGTGAGG | -0.0214
68 | CCATGCCC | -0.198
69 | CTCACGCA | 0.178
70 | CCTGGATC | -0.135
71 | CTGCGCAG | -0.283
72 | ATCTTCTC | 0.0141

Row | Sequence | PBM E-score
73 | CGAACCTA | -0.114
74 | ACCCGCAA | -0.191
75 | ACTTGTTA | 0.0293
76 | ATTATAAC | -0.00089
77 | CTGGGCCA | -0.23
78 | GCGACTGA | 0.31
79 | GTGTTAGA | -0.03
80 | AGGAGTCG | 0.375
81 | ATGCCAAC | -0.162
82 | CAACGATA | -0.077
83 | AAATCTAG | 0.0437
84 | CAGCACAG | -0.049
85 | AGATCCGC | -0.0379
86 | ATTAGTGC | 0.0572
87 | TCAGGCGA | 0.043
88 | GCTGGCAA | -0.065
89 | GAACAATA | 0.0785
90 | CACAGCGG | -0.0138
91 | AATAGGGA | -0.212
92 | CAGAAGAG | -0.0116
93 | ATTCCGTG | 0.105
94 | ACTATCTA | 0.21
